Publication PMC11284791, “Ribosome External Electric Field Regulates Metabolic Enzyme Activity: The RAMBO Effect” (The Journal of Physical Chemistry. B, 2024)

Target: T1, C-terminal His-tagged triosephosphate isomerase from G. gallus (G. gallus, UniProt P00940 1-248)
T1 construct: Triosephosphate isomerase, G. gallus, 248 residues, as m1, with a C-terminal His tag; also called His-TPI; His-tagged TPI; source: E. coli BL21 (DE3), pET-21a(+)-His-TPI, purified (Ni-NTA); not shown: His tag, C-terminal, kept
T1 sequence (P00940 whole entry): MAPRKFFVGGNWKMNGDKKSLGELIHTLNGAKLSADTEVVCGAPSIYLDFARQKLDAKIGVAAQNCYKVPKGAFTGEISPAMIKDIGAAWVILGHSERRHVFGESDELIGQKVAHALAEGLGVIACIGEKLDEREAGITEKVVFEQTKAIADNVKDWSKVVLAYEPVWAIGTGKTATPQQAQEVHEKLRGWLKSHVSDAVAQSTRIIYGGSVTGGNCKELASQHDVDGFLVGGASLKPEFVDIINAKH
Assay: cross-linking; 100 μM His-TPI and 10 μM ribosomes with 2 mM BS(PEG)5 (21.7 Å arm); 10 mM sodium phosphate pH 7.5, 100 mM NaCl, 10 mM MgCl2, RT, 30 min; His-TPI recaptured on Ni-NTA in 8 M urea; the ~65 kDa band was excised, digested with trypsin and analysed by LC-MS/MS (pLink 2)
Details: both partners purified

B1: Ribosomal protein L11 (natural protein)
chain: not shown
notes: 50S ribosomal protein L11, E. coli (strain MRE600), within the intact ribosome; Stood in the assay as a subunit of m3; also called RP L11; ribosome protein L11; source: part of intact 70S ribosomes purified from E. coli MRE600
binding result: binds
